Results taken from PubChem BioAssay AID2202238 (Ras Initiative Chemistry Research Team, Frederick National …, 2025).
The other results are listed elsewhere or left out. These are further read-outs of the screen, such as a control signal, another cell line or another target. No call is given for them.

Target: GTPase KRas (Homo sapiens) (UniProt P01116)
Assay: Cysteine mutants labelled by reactive fragments (mass read-out) (AID 2202238)
Design: protein at 5 µM with 500 µM competing thiol for 1.5 h
Conditions: KRAS G12D cysteine mutants, disulfide tethering, MALDI-TOF labeling, stronger effect = higher value, fragment at 500 µM
[1] = measured here: G75C mutant labeling
[2] = measured here: H94C mutant labeling
[3] = measured here: I36C mutant labeling
[4] = measured here: L120C mutant labeling
[5] = measured here: M67C mutant labeling
[6] = measured here: M72C mutant labeling
[7] = measured here: N86C mutant labeling
[8] = measured here: P121C mutant labeling
[9] = measured here: S122C mutant labeling
[10] = measured here: S136C mutant labeling
[11] = measured here: G60C mutant labeling
[12] = measured here: N26C mutant labeling

Chain of UniProt P01116 (P01116 whole entry, looked up, the tested form may be a part): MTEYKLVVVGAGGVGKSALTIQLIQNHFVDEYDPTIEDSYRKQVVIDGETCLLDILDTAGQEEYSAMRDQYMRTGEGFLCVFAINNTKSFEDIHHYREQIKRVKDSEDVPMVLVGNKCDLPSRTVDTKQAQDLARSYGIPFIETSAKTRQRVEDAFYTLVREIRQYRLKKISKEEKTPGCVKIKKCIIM

SMILES	percent labeling [1] [%]	percent labeling [2] [%]	percent labeling [3] [%]	percent labeling [4] [%]	percent labeling [5] [%]	percent labeling [6] [%]	percent labeling [7] [%]	percent labeling [8] [%]	percent labeling [9] [%]	percent labeling [10] [%]	percent labeling [11] [%]	percent labeling [12] [%]
Cc1nc(C2CCN(C(=O)CCS)C2)n[nH]1 (stereo not drawn)	11	26.3	36.8	23.1	34.6	14.9	24.7	31.7	29.7	53.8	–	–
O=C(CCS)Nc1ccc2[nH]ncc2c1Cl	34.3	37	46.8	26.1	36.4	49.4	51.8	30.2	27.4	59.9	–	–
CC(Cc1ccc(F)c(F)c1)C(=O)NCCS (stereo not drawn)	21.9	35.9	33.8	30.6	38.2	46.5	26	29.5	25.6	46.1	48.5	44.1
NC(=O)c1cc(NC(=O)CCS)ccc1Cl	18.8	29.5	35.3	39	29.2	39.7	24	36.3	40.6	50.2	–	–
O=C(NCCS)C(c1ccccc1)N1CCCCC1=O (stereo not drawn)	18.1	41	23.8	47.9	35.5	20.3	28	36.3	33.4	69.9	40.7	37.3
O=C(NCCS)c1ccc(-c2ccc(F)cc2)o1	12.5	10.3	9	16.4	11.9	47.5	7.9	10.6	6.7	21.3	15.9	29.1
O=C(CCS)N1CC(O)(c2ccc(F)cc2)C1	23.7	30.7	38	20.6	41.1	33.7	19	35.9	36.4	47.6	–	–
O=C(NCCS)[C@@H]1C[C@@H]1c1nc2ncccc2[nH]1	13.3	26.1	26.3	33.5	24.1	15	19.2	25.6	24.3	33.3	25.9	33.8
COc1cc2cc(C(=O)NCCS)[nH]c2cc1OC	11.2	15.6	14.5	21.7	11.6	36.1	15.8	13.5	12.8	19.1	17.2	38.5
Cn1c(CNC(=O)CCS)nnc1-c1ccccc1	10.9	36.6	45.6	34.6	41.9	29.1	32.6	39.5	31.1	53.1	–	–
O=C(NCCS)C1(c2ccc(Br)cn2)CCC1	22.4	36.3	23.1	56	28.1	41.6	25.7	28.6	24.5	45.8	56.1	41.2
O=C(CC1=NN(c2cccc(Cl)c2)C(=O)C1)NCCS	4.4	10.7	5.4	9.9	5.4	0	5.5	8.3	0	10.2	12.9	9.2
O=C1CN(Cc2occc2C(=O)NCCS)CCN1	10.7	30.7	15.4	23.7	20.8	10.1	17.3	26.9	20.3	25.1	22.3	24.5
CC(C)Cc1cc(CNC(=O)CCS)no1	16.5	27.5	35.1	22.9	27.9	39.7	28.4	31.2	27.1	44.5	–	–
COc1cc2c(c(OC)c1OC)CCN(C(=O)CCS)CC2	15.4	36.3	32.3	32.2	44.1	28.6	39.3	32	31.3	58.7	–	–
O=C(CCS)NCc1nnc(N2CCCC2)o1	6	13.8	19.7	25.7	19.6	10.3	7.2	24.1	21.8	36.5	–	–
O=C(CCS)NC1CCN(C(=O)c2ccccc2F)CC1	13.7	40.5	50	31.8	53.4	32.4	34.4	37.7	40.5	63.8	–	–
O=C(NCCS)c1cnn(-c2ccc(F)cc2)c1-n1cccc1	20.4	18.5	12.4	20.7	13.3	41.7	13.4	11.6	10.7	25	33.6	35.1
Cc1cc(C(=O)NCCS)c(C)n1C1CCCOC1 (stereo not drawn)	4.6	15.6	0	16.1	10.6	13.6	8.9	12.5	10.2	16.1	13.2	12.9
COc1c(Cl)cc(C(=O)NCCS)c2ncccc12	30	21.6	9.7	15	14.9	43.1	7.6	12.9	9.6	19.3	32.2	30.5
O=C(CCS)NC1CCN(c2ccc(F)cc2)CC1	10.8	32	39.3	27.8	39.1	28.8	15.2	31.7	30.2	49.3	–	–
CCc1cc2c(CC(=O)NCCS)csc2s1	16.9	20.1	10.5	19.5	13.6	39.9	15.6	16.4	5.6	19	36.4	27
Cc1ccc(C(=O)NCCS)c(F)c1Br	19.8	21.3	11.8	18	16.9	51	17.2	18.3	13.3	19.2	38.5	32.3
Cc1cc(Oc2ccccc2)ccc1C(=O)NCCS	8.4	12.1	6.8	15.7	18.1	35.7	7.9	15.2	12.1	15.7	32.6	27.4

SMILES	percent labeling [1] [%]	percent labeling [2] [%]	percent labeling [3] [%]	percent labeling [4] [%]	percent labeling [5] [%]	percent labeling [6] [%]	percent labeling [7] [%]	percent labeling [8] [%]	percent labeling [9] [%]	percent labeling [10] [%]	percent labeling [11] [%]	percent labeling [12] [%]
CC(=O)N(CCC(=O)NCCS)Cc1ccccc1	12.7	34.6	29.6	46.3	40.2	23.9	24.5	33.9	33.5	53	37.3	37.6
CN(Cc1ccnc2ccccc12)C(=O)CCS	20.9	34	38.5	29.2	40.3	40.4	32.1	37.4	17.9	58	–	–
CC(C)(CNC(=O)CCS)c1ccc(F)cn1	10.2	30.7	37.9	25	33	21.5	21.4	33.2	33	48.3	–	–
Cc1cc(NC(=O)CCS)c(C#N)cc1N(C)C	22.5	27	38.9	30	39.2	48.5	36.5	29.6	22.7	51.9	–	–
Cc1cccc(C(=O)NC2CC(NC(=O)CCS)C2)n1 (stereo not drawn)	10.6	30.8	41.4	34.1	39.2	18.1	29.9	34.6	37.4	49.6	–	–
O=C(CCS)Nc1cn[nH]c1-c1ccccn1	40.6	27.9	24.1	15.9	29.3	48	13.9	17.8	25.4	37.1	–	–
O=C(CCS)NCCn1ccc(-c2ccccc2)n1	13.8	41.2	38.9	37.2	44.9	34.1	22.3	35.3	32	54.7	–	–
Cc1nn(C)c(N2CCN(C(=O)CCS)CC2)c1C#N	17.9	33.3	43.5	31.9	52.3	33.8	31	35	34.4	67.5	–	–
CC(C)c1ccc(NC(=O)CCS)cc1C(F)(F)F	15.3	21.2	17.8	26.5	14.7	42.6	18.7	14.3	11.3	45.4	–	–
Cc1nc(-c2ccncc2)[nH]c(=O)c1CCC(=O)NCCS	7.9	23.8	22.5	24.5	29.9	10.7	23.7	26.4	26.6	29.1	28.1	34.1
Cn1ccc(C(=O)NCCS)c1-c1ccccc1	17.6	51.6	18.5	43	30.3	38.1	21.8	21.7	23.2	44.1	54.1	36.4
COc1ccc2c(n1)N(C)CCN2C(=O)CCS	11.7	28.2	27.8	14.1	30.5	28.7	26	19.8	21.6	40.6	–	–
O=C(CCS)N1CC(Oc2cccc(F)c2)C1	24.5	28	28.1	25.6	51.6	43.3	20.3	32.8	26	44.7	–	–
O=C(NCCS)C1(Oc2ccc(Cl)cc2)CC1	16.2	23.1	12.6	22.4	20	22.7	13.8	18.6	15	24.8	38.4	28.8
Cc1cc(C)n(-c2ccc(NC(=O)CCS)cc2Cl)n1	14.9	18.9	25.9	18.6	21.7	36.7	13.6	20.1	15.9	44.3	–	–
CC1(C(=O)NCCS)CC(c2ccccc2)=NO1 (stereo not drawn)	9.9	22.5	19.8	15.5	39.5	19.5	7.4	39.2	12.7	54.6	23.2	32.6
CC(C)c1onc(-c2ccccc2)c1C(=O)NCCS	11.7	25.7	10.2	18.1	25.1	27.7	11.7	20.4	18.7	31.6	49.9	30.2
Cc1c(C(=O)NCCS)oc(=O)c2ccccc12	8.9	9.3	7.6	11.9	10	40.2	8.4	42.7	9.1	21.2	18.3	25.6
O=C(CCS)Nc1ccc(OC(F)F)nc1	16.7	33	35.5	19.2	23.8	38	20	29.6	28.7	44.6	–	–
COc1ncc(C(=O)NCCS)c(C(F)F)n1	13.7	31.2	24.9	30.6	29.6	27.7	27.5	33.8	30.1	41.7	31.6	36.8
O=C(CNC(=O)c1cccc2[nH]ccc12)NCCS	21.5	30.5	25.8	69.8	55.2	43.7	32.7	35.3	55	41.9	35.7	38.3
O=C(CCS)NCCn1ccn2nccc2c1=O	7.6	23.3	38	29.7	29.7	12.1	21	35.8	29.3	45.6	–	–
O=C(NCCS)c1cccc2nc(C(F)F)sc12	25.8	14.2	11.6	21.6	20.2	58.2	16.2	16	7.1	25.6	33.4	32.3
